Out of some 230,000 compounds screened, about 3,600 (1.6%) were called active. Inconclusive means that the source gave no clear call. Such entries were picked first, then a sample of the others. The call rests on the fitted dose curve; in most records, active means well fitted inhibition curve with a large enough effect (not every such curve was filed as active); inconclusive means small, poorly fitted or top-dose-only effect, or another doubt; inactive means no such curve, though single readings can be large or run the other way. Where the call is inconclusive, the potency comes from a doubtful curve fit.
Molecular target: Lysine-specific demethylase 4E (Homo sapiens) (UniProt B2RXH2)
Assay: qHTS Assay for Inhibitors of Human Jumonji Domain Containing 2E (JMJD2E)
Conditions: JMJD2E catalytic domain, FDH-coupled NADH fluorescence (FDH is formaldehyde dehydrogenase); series mostly up to 57.1 µM; activity change, negative = inhibition: at the top concentration
Further: nearly all actives have a fitted effect of over 50% in size.
Potency means the concentration at half of the fitted maximal effect; tags describe the fitted curve by direction and shape.
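Wherever activity change, negative = inhibition is given: 0% = wells with enzyme and -100% = buffer wells without enzyme.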

Sequence of UniProt B2RXH2 (B2RXH2 whole entry, looked up, the tested form may be a part): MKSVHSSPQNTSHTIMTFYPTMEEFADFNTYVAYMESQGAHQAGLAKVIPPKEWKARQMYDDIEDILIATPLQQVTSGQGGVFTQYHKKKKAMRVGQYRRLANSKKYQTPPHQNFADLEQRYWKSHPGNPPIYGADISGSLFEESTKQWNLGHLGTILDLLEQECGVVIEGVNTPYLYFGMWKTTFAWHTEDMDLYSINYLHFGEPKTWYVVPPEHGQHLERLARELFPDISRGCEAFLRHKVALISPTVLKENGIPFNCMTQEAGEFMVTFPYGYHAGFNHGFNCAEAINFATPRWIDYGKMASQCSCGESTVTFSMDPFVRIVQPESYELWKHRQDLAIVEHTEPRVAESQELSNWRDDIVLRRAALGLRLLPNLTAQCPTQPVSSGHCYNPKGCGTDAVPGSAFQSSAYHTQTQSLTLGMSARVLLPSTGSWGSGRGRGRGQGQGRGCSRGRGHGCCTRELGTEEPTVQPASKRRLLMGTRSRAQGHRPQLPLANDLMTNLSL

| SMILES | Potency | activity change, negative = inhibition |
| --- | --- | --- |
| COc1ccc(-c2cc(C(=O)NCCc3ccc(S(N)(=O)=O)cc3)c3ccccc3n2)cc1 | inconclusive: 22.4 µM [inhibitor, partial curve] | – |
| COc1ccc(CNC(=O)CN(Cc2ccc(F)cc2)C(=O)c2csnn2)cc1 | – | inactive: -5.69% |
| CCOC(=O)c1cnc(SCC(=O)Nc2ccc3c(c2)OCCO3)nc1N | – | inactive: 1.34% |
| Cc1cc(C2=NNC(=Nc3ccc(S(=O)(=O)N4CCOCC4)cc3)SC2)c(C)n1CC1CCCO1 (stereo not given) | inconclusive: 35.5 µM [inhibitor, single point] | – |
| O=C(O)CCCNC(=O)c1cncc(O)c1 | inconclusive: 35.5 µM [inhibitor, partial curve] | – |
| Cc1ccc2oc(-c3ccccc3)nc2c1 | inconclusive: 28.2 µM [inhibitor, single point] | – |
| O=C(CNC1CCCCCC1)Nc1ccccc1N1CCCCC1 | inconclusive: 39.8 µM [inhibitor, single point] | – |
| COc1ccc2c(c1)c1ncn(Cc3ccco3)c(=O)c1n2C | inconclusive: 22.4 µM [inhibitor, partial curve] | – |
| CCOC(=O)C1CCCN(C(=O)/C=C/c2cc(OC)c(OC)c(OC)c2)C1 (stereo not given) | inconclusive: 28.2 µM [inhibitor, partial curve] | – |
| NC(=O)CCn1c2ccccc2c2ccccc21 | inconclusive: 35.5 µM [inhibitor, single point] | – |
| N=C1S/C(=C\c2ccc(-c3cccc(Cl)c3)o2)C(=O)N1c1nccs1 | – | inactive: 9.16% |
| COc1ccc(-c2cc(C(=O)Nc3ccc(S(=O)(=O)Nc4onc(C)c4C)cc3)c3ccccc3n2)cc1OC | inconclusive: 31.6 µM [inhibitor, single point] | – |
| CN(/N=C/c1cc(Cl)cc(Cl)c1O)C(=S)NC(C)(C)C | active: 31.6 µM | – |
| CCc1ccc(NC(=O)Cn2c3[n+](c4c(F)c(F)ccc42)CCCCC3)cc1 | – | inactive: 14.8% |
| CC(C)c1ccccc1NC(=O)Cn1c(/C=C/c2ccccc2)nc2ccccc21 | inconclusive: 31.6 µM [inhibitor, partial curve] | – |
| Cc1ccc2cc(CN(Cc3nnnn3Cc3ccco3)CC3CCCO3)c(=O)[nH]c2c1C (stereo not given) | inconclusive: 28.2 µM [inhibitor, single point] | – |
| Cc1nc2ccccc2cc1O | inconclusive: 28.2 µM [inhibitor, partial curve] | – |
| CCCCCCCCCCCCCCCCCCOC[C@H](COP(=O)([O-])OCC[N+](C)(C)C)OC | inactive | – |
| CC(/C=C1\SC(=S)N(NC(=O)c2cccc(O)c2)C1=O)=C\c1ccccc1 | inconclusive: 22.4 µM [inhibitor, single point] | – |
| FC(F)(F)c1cc(Cl)c2nnc(C(F)(F)Cl)n2c1 | – | inactive: 5.36% |
| COc1c(N2CCN(C(=S)Nc3ccc(F)cc3)C(C)C2)c(F)cc2c(=O)c(C(=O)O)cn(C3CC3)c12 (stereo not given) | inconclusive: 4.47 µM [inhibitor, full curve] | – |
| O=C(Nc1cccc(NC(=O)c2ccc(-c3cccc(Br)c3)o2)c1)c1ccco1 | inconclusive: 35.5 µM [inhibitor, single point] | – |
| Oc1ccc2ccccc2c1CN1CCCC1 | active: 31.6 µM | – |
| COCCNC(=O)CCCn1c(=O)c2cc(OC)c(OC)cc2n(CC(=O)NCCC2=CCCCC2)c1=O | inconclusive: 25.1 µM [inhibitor, partial curve] | – |

| SMILES | Potency | activity change, negative = inhibition |
| --- | --- | --- |
| Cc1ccc(N/N=C2\CC(=O)c3ccccc32)cc1Cl | active: 22.4 µM | – |
| COc1ccc2c(-c3cccnc3)cc(=O)[nH]c2c1 | inconclusive: 22.4 µM [inhibitor, partial curve] | – |
| COc1ccc(C)cc1NC(=O)c1nnn(Cc2cccc(C(F)(F)F)c2)c1N | inconclusive: 31.6 µM [inhibitor, partial curve] | – |
| Cc1cc(/C=C(\C#N)C(=O)Nc2ccccc2)c(C)n1-c1ccc(C(=O)O)cc1 | inconclusive: 39.8 µM [inhibitor, single point] | – |
| O=c1c(-c2ccccc2)[n+]([O-])c2ccccc2n1O | inconclusive: 39.8 µM [inhibitor, single point] | – |
| C=C1CSc2nc(=O)c3c4c(sc3n21)CCC4 | – | inactive: 0.96% |
| O=C(O)COCc1nc2ccccc2[nH]1 | – | inactive: 1.63% |
| CCN(CC)CCC[C@H](C)Nc1ccnc2cc(Cl)ccc12 | – | inactive: 4.47% [at 25.5 µM] |
| CCc1ccc(NC(=S)Nc2cccc3cnccc23)cc1 | inconclusive: 14.1 µM [inhibitor, partial curve] | – |
| CC(C)C(C)(C#N)NC(=O)CSc1nc2scc(-c3ccco3)c2c(=O)n1-c1ccccc1 (stereo not given) | inconclusive: 31.6 µM [inhibitor, single point] | – |
| COc1ccc(C(=O)Cn2c3ccccc3n3nc(CCC(=O)O)c(=O)nc23)cc1OC | inconclusive: 31.6 µM [inhibitor, partial curve] | – |
| O=C(NCCCN1CCCC1=O)c1cc(-c2cccnc2)nc2ccc(Cl)cc12 | inconclusive: 39.8 µM [inhibitor, single point] | – |
| C=C(C)C(=O)NNc1ccccc1 | active: 14.1 µM | – |
| Cc1cccc(C)c1Nc1nnc(SCC(=O)c2ccc3c(c2)NC(=O)CO3)s1 | – | inactive: -0.837% |
| CN(C)S(=O)(=O)c1cc(NC(=O)COC(=O)/C=C/c2ccco2)ccc1Cl | – | inactive: -13% |
| CCCCN(CC)CCNC(=O)c1cc2c(=O)[nH]c3ccccc3c2n1C | inconclusive: 35.5 µM [inhibitor, partial curve] | – |
| COCCN(Cc1cc2cc(C)c(C)cc2nc1Cl)C(=O)N1CCOCC1 | – | inactive: 10.6% |
| CCOc1ccc2oc(C(=O)NC3CC(C)(C)NC(C)(C)C3)c(C)c2c1 | inconclusive: 28.2 µM [inhibitor, partial curve] | – |
| C=CCNCCCOc1ccc(Cl)cc1C(C)(C)C | inconclusive: 25.1 µM [inhibitor, single point] | – |
| CCOCC(=O)Nc1cc(S(=O)(=O)N2CCOCC2)ccc1N1CCCCC1 | inconclusive: 35.5 µM [inhibitor, single point] | – |
| O=C1CCCc2c1[nH]c1ccc(Cl)cc21 | inconclusive: 28.2 µM [inhibitor, partial curve] | – |
| CC(C)CNS(=O)(=O)c1ccc(CCC(=O)NCc2ccncc2)cc1 | – | inactive: -4.85% |
| O=C(NCc1cccs1)c1nc2c(nnn2Cc2ccc(F)cc2)c(=O)[nH]1 | – | inactive: -0.212% |
| O=C(Nc1ccc(S(=O)(=O)Nc2ncccn2)cc1)c1ccc2ncsc2c1 | active: 3.16 µM | – |

| SMILES | Potency | activity change, negative = inhibition |
| --- | --- | --- |
| COc1cc2nc(C3CCC3)nc(N3CCN(c4ccccn4)CC3)c2cc1OC | inconclusive: 35.5 µM [inhibitor, single point] | – |
| CCOC(=O)c1sc(NC(=O)c2ccc(S(=O)(=O)N3CCOCC3)cc2)nc1-c1ccccc1 | inconclusive: 28.2 µM [inhibitor, partial curve] | – |
| COc1ccc(CN(C)C(C)C(=O)Nc2ccc([N+](=O)[O-])cc2Cl)cc1OC (stereo not given) | – | inactive: -4.31% |
| COc1ccc(OC)c(C2CC(c3c(-c4ccccc4)c4cc(Cl)ccc4[nH]c3=O)=NN2S(C)(=O)=O)c1 (stereo not given) | inconclusive: 6.31 µM [inhibitor, single point] | – |
| CC(C)[C@@H](CC(=O)N[C@@H]1CCNC[C@H]1C(=O)N[C@H](CC(=O)N[C@@H](CCC(=O)O)CC(=O)O)Cc1ccccc1)NC(=O)C[C@H](Cc1c[nH]c2ccccc12)NC(=O)[C@@H]1CCCC[C@H]1N | – | inactive: -3.95% |
| CC(=O)Nc1ccc(Nc2cc(C)nc3c(-c4ccccc4)c(C)nn23)cc1 | inconclusive: 39.8 µM [inhibitor, single point] | – |
| O=C1/C(=C/c2ccco2)Oc2c1ccc(O)c2CN1CCCCC1 | inconclusive: 14.1 µM [inhibitor, partial curve] | – |
| CCN(CC)c1ccc(/C=N/OCC(=O)Nc2cccc(C)c2)cc1 | inconclusive: 25.1 µM [inhibitor, partial curve] | – |
| O=S(=O)(c1ccc(NC(=S)N/N=C/c2ccc(Oc3ccccc3)cc2)cc1)N1CCOCC1 | – | inactive: -5.18% |
| O=C1C2C3C=CC(CC3)C2C(=O)N1/N=C/c1ccc(O)c(O)c1 (stereo not given) | active: 15.8 µM | – |
| Cc1ccc(NC(=O)CCC(=O)NNC(=O)/C=C/C(=O)O)c(C)c1 | inconclusive: 39.8 µM [inhibitor, single point] | – |
| Cc1ccc(-c2c[n+](CC(=O)Nc3ccccc3)c3n2CCC3)cc1 | inconclusive: 39.8 µM [inhibitor, single point] | – |
| CCNC(=S)NNC(=S)NCc1ccccc1 | – | inactive: 0.426% |
| Cc1ccc(C)c(OCC(=O)Nc2ccc3c(c2)OCO3)c1 | inconclusive: 31.6 µM [inhibitor, single point] | – |
| CCCOc1ccc2oc(=O)c3c(c2c1)CCCN3C(=O)CN1CCc2ccccc2C1 | inconclusive: 28.2 µM [inhibitor, single point] | – |
| CC[N+]1(CC)CC2=Cc3c(ccc4ccccc34)CC2C1 (stereo not given) | inconclusive: 28.2 µM [inhibitor, partial curve] | – |
| COc1ccc(O)c(/C=N/NC(=S)Nc2cccnc2)c1 | inconclusive: 31.6 µM [inhibitor, partial curve] | – |
| C=CCN1C(=O)C(Cc2ccccc2)S/C1=N/N=C/c1cccs1 (stereo not given) | – | inactive: 7.65% |
| O=C(O)c1ccc(NCCc2ccc(Cl)cc2)c([N+](=O)[O-])c1 | – | inactive: 0.665% |
| COc1cc(-c2nc3ccc(N4CCN(C)CC4)cc3[nH]2)cc(OC)c1OC | inconclusive: 28.2 µM [inhibitor, partial curve] | – |
| C(=N\n1cnnc1)/c1ccc(OCc2ccccc2)cc1 | inconclusive: 35.5 µM [inhibitor, single point] | – |
| O=C(c1ccc2nc(N3CCOCC3)sc2c1)N1CCC(Cc2ccccc2)CC1 | inconclusive: 39.8 µM [inhibitor, single point] | – |
